Results as given in PubChem BioAssay AID759 (NMMLSC, 2007).
The campaign covered roughly 190,000 compounds. About 270 (0.14%) were called active. The shares of active, inactive and inconclusive entries below differ from those in the screen.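 Rule for the calls: active = GTP binding activity at least 20% away from the 100% baseline, either lowered as inhibitor or raised as activator; inconclusive = flagged as likely green fluorescent, judged across all proteins in the well; inactive = the rest.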

The compounds below were run against GTPase HRas (Homo sapiens) (UniProt P01112) (assay: HRas wt fluorescent GTP binding changes, either direction – biochemical, wildtype, bead-based flow cytometry, multiplex, primary screen (AID 759;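 note: 0% = unlabeled GTP competition control and 100% = no-compound control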)). Details: GST-Ras wt beads, Bodipy-FL-GTP binding, at 10 µM, actives lie on both sides.
UniProt P01112, sequence (P01112 whole entry, looked up): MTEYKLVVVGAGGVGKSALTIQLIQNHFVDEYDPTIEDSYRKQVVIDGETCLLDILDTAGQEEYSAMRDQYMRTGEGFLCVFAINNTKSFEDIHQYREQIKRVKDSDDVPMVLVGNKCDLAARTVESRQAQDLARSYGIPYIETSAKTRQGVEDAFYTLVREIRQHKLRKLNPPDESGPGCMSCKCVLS

GTP binding activity, active:
COc1ccc2o/c(=N/NC(=O)c3cccs3)c(C(N)=O)cc2c1 61%, Cc1ccc(C)c(OCCn2cc(C(=O)O)c3ccccc32)c1 129% [activator], COCCNc1nc(=S)[nH]c2cc(OC)c(OC)cc12 71%, COc1ccc([N+](=O)[O-])cc1NC(=S)NC(NC(=O)Cc1ccc(OC)c(OC)c1)C(Cl)(Cl)Cl (stereo not given) 57%

GTP binding activity, inactive:
C#CC1(NC(=O)NC(C)C)CCCCC1 101%, O=C(CN1CCN(Cc2ccccc2)CC1)N/N=C/c1c[nH]c2ccccc12 103%, COC(=O)c1ccc(OCC(O)CN2C(=O)c3ccccc3S2(=O)=O)cc1 (stereo not given) 94%, Cc1cccc(OCC(=O)N2CCN(C(=O)c3ccco3)CC2)c1 94%, COc1ccc(Cn2cc(F)c(=O)n(CCC(C)C)c2=O)cc1[N+](=O)[O-] 95%, Cc1cc(C)n(C(C)n2nc(C)cc2C)n1 101%, CCO[C@@H]1OC(C(=O)N2CCOCC2)=C[C@H](c2ccccc2)[C@H]1CCCO 98%, COc1ccc(CC(=O)OC(C)CN2CCCCC2)cc1 (stereo not given) 95%, COc1ccc(/C=C/C(=O)NC(C)CCc2ccccc2)cc1 (stereo not given) 97%, O=C(NCCc1ccc(Cl)cc1)C1CCC(CNc2nc(=S)[nH]c3ccccc23)CC1 (stereo not given) 89%, Cc1ccc(C(c2nnnn2C2CCCCC2)N2CCN3CCCC3C2)cc1 (stereo not given) 102%, COc1ccc(NS(=O)(=O)c2cc(NC(=O)c3cnccn3)ccc2OC)cc1Br 95%, O=C(Nc1ccccc1F)Nc1ccccc1OC(F)F 99%, O=C(NCc1ccccn1)C(=O)C1C(=O)Nc2ccccc21 (stereo not given) 97%, Cc1cc(=O)oc2cc(OC(=O)c3cncc(Br)c3)ccc12 94%, CC(C)C(OC(=O)/C=C/c1ccc2c(c1)OCO2)C(=O)NC(N)=O (stereo not given) 97%, CCc1sc(C(=O)Nc2ccccc2N2CCOCC2)cc1C 94%

GTP binding activity, inconclusive:
CC1CCc2cc(F)ccc2N1S(=O)(=O)c1ccc(Cl)nc1 (stereo not given) 103%, CCOC(=O)c1c(C)[nH]c2cc(Br)c(O)cc12 89%, CCCc1nc(C)c(-c2ccc(OC)c(OC)c2)c(=O)[nH]1 105%, Nc1cccnc1Sc1cc(Cl)c(Cl)cc1Cl 95%, Cc1cccc(N=Cc2[nH]c3ccc(Br)c(Cl)c3c2O)c1 156%, COC(=O)C1=C(C)N(c2ccccc2)C(=S)NC1c1ccccc1C(F)(F)F (stereo not given) 93%, COc1ccc(/C=N\NC(=O)c2cc(O)c(O)c(O)c2)cc1CN1CCN(c2ccc(F)cc2)CC1 92%, Cc1oc(-c2ccccc2Cl)nc1CN1CCCN(C(=O)c2ccco2)CC1 92%, COc1ccc(N2C(=O)C3NN=C(C(=O)OCc4ccccc4)C3C2=O)cc1 (stereo not given) 94%, CCOc1ccc(CC(=O)NNC(=S)Nc2ccccc2)cc1Br 96%, CCCCNC(=O)c1onc(CSc2ccccc2C)c1C(=O)O 90%, Cc1cccn2c(=O)c(/C=N/O)c(N3CCCCC3)nc12 95%, O=C(CN1C(=O)c2ccccc2S1(=O)=O)Nc1cccnc1 98%, Cc1ccc(S(=O)(=O)N(C)C)cc1NC(=S)N1CCCCC1CO (stereo not given) 96%, CSc1nc2c(c(=O)n1C)SC(C)C2 (stereo not given) 104%, COc1ccc(N=C2S/C(=C\c3ccc(N4CCOCC4)o3)C(=O)N2CCc2c[nH]c3ccccc23)cc1 138%, O=C(NCc1cccnc1)Nc1cccc(NC(=O)NCc2cccnc2)c1 106%, O=c1c2ccccc2sn1-c1ccccc1 102%, O=[N+]([O-])c1cc(/C=N\Nc2nccs2)ccc1O 94%, Cc1ccc(O)c(NC(=O)c2cccc(S(=O)(=O)N3CCCCC3)c2)c1 96%, Oc1c(Cl)cc(Cl)cc1C=Nc1ccc2c(c1)OCCO2 84%, CC1=CC(C)(C)Nc2ccc(OC(=O)c3ccco3)cc21 91%, Cc1cccc(-c2nnnn2-c2cccc(C)c2)c1 94%, CCN(C(=O)CSc1nnc(-c2ccncc2)n1C)C1CCS(=O)(=O)C1 (stereo not given) 106%, CC1CN(c2nc3c(c(=O)n(Cc4ccc(Cl)c(Cl)c4)c(=O)n3C)n2C)CC(C)O1 (stereo not given) 93%, Cc1ccc(-c2noc(CN3C(C)CCCC3C)n2)cc1 (stereo not given) 73%, Cn1nc(-c2ccc(Cl)cc2)c2cc(C(=O)NCCN3CCOCC3)sc21 88%, CCOc1ccc(C(=O)Nc2ccccc2C(=O)O)cc1 92%, Cc1ccc(NC(=O)CO/N=C/c2ccc(N(C)C)cc2)cc1 114%, Cc1ccc(C(=O)Nc2cccc([N+](=O)[O-])c2)cc1S(=O)(=O)Nc1ccc(C(=O)O)cc1 87%, O=C(Cn1nnc2c(cnn2-c2ccccc2)c1=O)NCc1cccs1 90%, CC(C)c1ccc(CN2CC(C(=O)Nc3ccccc3)CC2=O)cc1 (stereo not given) 91%, Cc1nc(NC(=O)CSc2nnc(-c3ccc4c(c3)OCO4)o2)c(Cl)cc1Cl 103%, CCOCc1[nH]c(=S)[nH]c(=O)c1Cc1ccc(OC(C)C)cc1 93%, O=c1c2ccccc2nc(SCc2nc(-c3ccccc3)no2)n1-c1ccc(F)cc1 101%, CCC(=O)N1CCN(c2ccc(NC(=S)NC(=O)c3ccc(OC)c([N+](=O)[O-])c3)cc2)CC1 94%, CSCC[C@@H](C(=O)NCc1cccs1)N1Cc2ccccc2C1=O 104%, Cc1ccccc1NC(=O)OCc1cccnc1Sc1ccc(Cl)cc1 92%, Cc1ccc(F)cc1CNC(=O)c1cc(COc2ccc3ncccc3c2)on1 96%
